Experimental data from the supplement of paper PMC9911699.
The list shows a part of the results.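 The calls were made as follows: active = average curve height above 101 Omnilog units; inactive = average height at or below 101.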 Many values rest on one well or one pass, so single values are uncertain.

Tests used:
[1] = tested on: Acinetobacter baumannii AB6870155; experiment: respiration area under curve on compound as sole carbon source (Biolog PM, 48 h) (arbitrary Omnilog units x h (AUC)); higher = more carbon source utilisation / respiration; settings: Biolog inoculating fluid, temperature: 37 °C
[2] = tested on: Klebsiella pneumoniae KP6870155; experiment: as above; settings: Biolog inoculating fluid, temperature: 37 °C

| Compound | respiration area under curve [1] | respiration area under curve [2] |
| --- | --- | --- |
| OC[C@@H]1OC(O)[C@@H](O)[C@H](O)[C@H]1O (stereo partly drawn) [L-Glucose] | inactive: 1580 | inactive: 3600 |
| OC[C@H]1O[C@@H](O)[C@H](O)[C@H](O)[C@@H]1O [Beta-D-Allose] | inactive: 3040 | inactive: 3110 |
| C[C@@H](O)[C@H](O)[C@H](O)[C@@H](O)C=O [D-Fucose] | inactive: 3590 | inactive: 4230 |
| O[C@H]1[C@H](O)[C@@H](O)[C@H](O)[C@@H](O)[C@H]1O [Myo-Inositol] | inactive: 1670 | active: 10800 |
| OC[C@H]1O[C@H](O[C@H]2[C@H](O)[C@@H](O)[C@@H](O[C@H]3[C@H](O)[C@@H](O)C(O)O[C@@H]3CO)O[C@@H]2CO)[C@H](O)[C@@H](O)[C@@H]1O (mixture of isomers) [Maltotriose] | inactive: 2030 | active: 11300 |
| OC[C@H]1O[C@@H](Oc2ccc(O)cc2)[C@H](O)[C@@H](O)[C@@H]1O [Arbutin] | inactive: 1710 | active: 12600 |
| O=C(O)[C@@H](O)[C@H](O)C(=O)O [D-Tartaric Acid] | inactive: 2520 | inactive: 3590 |
| C[C@H](O)[C@@H](N)C(=O)O [D-Threonine] | inactive: 1690 | inactive: 3520 |
| O=C(O)CC(=O)O [Malonic Acid] | inactive: 6080 | inactive: 3190 |
| O=C(O)C(=O)O [Oxalic Acid] | inactive: 1760 | inactive: 4040 |
| OC[C@@H](O)[C@@H](O)CO [i-Erythritol] | inactive: 2150 | inactive: 4070 |
| OC[C@H]1O[C@H](OC[C@H]2OC(O)[C@H](O)[C@@H](O)[C@@H]2O)[C@H](O)[C@@H](O)[C@H]1O (stereo partly drawn) [D-Melibiose] | inactive: 2240 | active: 10900 |
| O[C@@H]1[C@@H](O)[C@@H](O)CO[C@H]1O [L-Arabinose] | active: 12100 | active: 11600 |
| OC[C@@H](O)[C@H](O)[C@@H](O)CO [Xylitol] | inactive: 1590 | inactive: 4960 |
| OC[C@H]1O[C@H](O[C@H]2[C@H](O)[C@@H](O)[C@H](O)O[C@@H]2CO)[C@H](O)[C@@H](O)[C@@H]1O [Maltose] | inactive: 1860 | active: 11400 |
| O=C(CO)[C@@H](O)[C@H](O)[C@@H](O)C(=O)O [5-Keto-D-Gluconic Acid] | inactive: 3000 | inactive: 5190 |
| CCC(O)C(=O)O (stereo not drawn) [Alpha-Hydroxy Butyric Acid] | active: 9030 | inactive: 4680 |
| C[C@@H](O)[C@H](N)C(=O)O [L-Threonine] | inactive: 4790 | active: 9030 |
| CC(C)C[C@H](N)C(=O)O [L-Leucine] | inactive: 6480 | inactive: 3570 |

| Compound | respiration area under curve [1] | respiration area under curve [2] |
| --- | --- | --- |
| OC[C@@H](O)[C@H](O)[C@H](O)[C@@H](O)CO [Dulcitol] | inactive: 2300 | active: 11500 |
| OC1OC[C@@H](O)[C@@H](O)[C@@H]1O (stereo partly drawn) [D-Arabinose] | inactive: 1620 | inactive: 4370 |
| OCc1ccccc1O[C@@H]1O[C@H](CO)[C@@H](O)[C@H](O)[C@H]1O [Salicin] | inactive: 1430 | active: 11500 |
| N=C(N)NCCC[C@H](N)C(=O)O [L-Arginine] | active: 11200 | active: 9320 |
| C[C@H](O)[C@@H](O)[C@@H](O)[C@H](O)C=O [L-Fucose] | inactive: 1530 | active: 10900 |
| CC(=O)C(C)=O [2,3-Butanedione] | inactive: 1780 | inactive: 2590 |
| O=C(O)[C@@H](O)[C@H](O)[C@H](O)[C@@H](O)C(=O)O [Mucic Acid] | active: 11700 | active: 10500 |
| OC[C@H]1O[C@@](CO)(O[C@H]2O[C@H](CO)[C@@H](O)[C@H](O)[C@H]2O)[C@@H](O)[C@@H]1O [Sucrose] | inactive: 1730 | active: 11700 |
| O=C1OC(C(O)CO)C(O)C1O [D-Galactonic Acid-gamma-Lactone] | inactive: 1480 | active: 12100 |
| CC(=O)N[C@@H](CCC(=O)O)C(=O)O [N-Acetyl-L-Glutamic Acid] | inactive: 1430 | inactive: 3240 |
| CC[C@H](C)[C@H](N)C(=O)O [L-Isoleucine] | inactive: 4020 | inactive: 3170 |
| NC(=O)CCC(=O)O [Succinamic Acid] | inactive: 4110 | inactive: 5170 |
| O=C(O)Cc1cccc(O)c1 [m-Hydroxy Phenyl Acetic Acid] | inactive: 2700 | active: 11100 |
| OC[C@@]12OC[C@@H](O1)[C@@H](O)[C@@H](O)[C@@H]2O [Sedoheptulosan] | inactive: 1420 | inactive: 3250 |
| Nc1ncnc2c1ncn2[C@@H]1O[C@H](CO)[C@@H](O)[C@H]1O [Adenosine] | inactive: 2360 | active: 12100 |
| OC[C@H]1O[C@H](O[C@H]2O[C@H](CO)[C@@H](O)[C@H](O)[C@H]2O)[C@H](O)[C@@H](O)[C@@H]1O [D-Trehalose] | inactive: 1380 | active: 12700 |
| COC1OC(CO)C(O)C(O)C1O [Alpha-Methyl-D-Mannoside] | inactive: 1570 | inactive: 4160 |
| NC(=O)C[C@H](N)C(=O)O [L-Asparagine] | active: 12500 | active: 11400 |
